Assay results reported in the supplement of paper PMC3334620.
The full ranking holds about 33,000 sequences; the median of “E-score (-0.5 to 0.5)” is about -0.056, and the highest 2% start at about 0.38. The list shows a part of the results.

These sequences were tested against Stb4 (UniProt P50104) (assay: PBM E-score (8-mer binding enrichment) (E-score (-0.5 to 0.5)); higher = stronger / more preferred TF binding; most listed sequences are background and not binding sites). Details: protein concentration: 200 nM; construct: GST-DNA-binding domain.
Method in brief: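 GST-tagged yeast TFs (full-length or DNA-binding domain) were made by PURExpress in vitro transcription/translation and applied at about 100-200 nM to universal all-10-mer Agilent arrays. The arrays were made double-stranded by primer extension, on fresh or once-stripped slides. Bound protein was detected with fluorescent anti-GST, and scans were normalised with masliner. Each ungapped eight-base word, pooled with its reverse complement, received an E-score (modified Wilcoxon-Mann-Whitney statistic) from the Universal PBM Analysis Suite.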
For AAGAGAAG, the “PBM E-score” value was -0.227. CAACGGCG was tested, and the “PBM E-score” value was -0.0275. With AGTGTTGC the “PBM E-score” value was -0.144. For ACTGTGCA, the “PBM E-score” value was -0.0936. CCTTTTTA was tested, and the “PBM E-score” value was -0.0616. With CGAGGTTA the “PBM E-score” value was 0.14. TGAGGCCA was tested, and the “PBM E-score” value was 0.00562. With CGTAAATC the “PBM E-score” value was 0.102. With AGCCTACG the “PBM E-score” value was -0.146. With CATTGGAC the “PBM E-score” value was -0.00489. For AAGCTTAC, the “PBM E-score” value was -0.299. In the case of TCGGTGAA, the “PBM E-score” value is reported as 0.259. In the case of TAACATGA, the “PBM E-score” value is reported as -0.098. CGCCCTGC was tested, and the “PBM E-score” value was 0.0196. With GAGGGAGA the “PBM E-score” value was -0.08. For AAAACCTC, the “PBM E-score” value was 0.263. For CAGTGCTC, the “PBM E-score” value was -0.16. With ATTAAGCA the “PBM E-score” value was -0.0882. With CACGTACA the “PBM E-score” value was -0.059. For AGTCCGCC, the “PBM E-score” value was 0.234. With ATAGTAAG the “PBM E-score” value was -0.151. For GACTTCGA, the “PBM E-score” value was -0.155. In the case of GCGAGTTA, the “PBM E-score” value is reported as -0.0128. For CAGCTTCG, the “PBM E-score” value was 0.0466. In the case of GATTTAGA, the “PBM E-score” value is reported as 0.0797. With CGCAACCG the “PBM E-score” value was 0.268. For AAGCGTAC, the “PBM E-score” value was -0.183. For AATCTATA, the “PBM E-score” value was 0.088. In the case of ATAGGATG, the “PBM E-score” value is reported as -0.237. AGCGAGGC was tested, and the “PBM E-score” value was -0.167. For CGGGGTGA, the “PBM E-score” value was 0.172. CCTGATTC was tested, and the “PBM E-score” value was -0.0894. With ATTAAGAC the “PBM E-score” value was -0.166. With ATATCACG the “PBM E-score” value was -0.0898. CGCATAAA was tested, and the “PBM E-score” value was -0.127. For GCACTCAA, the “PBM E-score” value was -0.0468. ACCCCGGA was tested, and the “PBM E-score” value was 0.232. With TGTACACA the “PBM E-score” value was -0.261. GAAGCACA was tested, and the “PBM E-score” value was 0.102. With CAATCCCG the “PBM E-score” value was 0.352. In the case of ATACCGTG, the “PBM E-score” value is reported as 0.0382. In the case of ACTACTTG, the “PBM E-score” value is reported as -0.195. With ATTTCTAC the “PBM E-score” value was 0.0311. In the case of GCACGTGA, the “PBM E-score” value is reported as -0.185. For AACTTAAC, the “PBM E-score” value was 0.165. In the case of CCCCGGGG, the “PBM E-score” value is reported as 0.252. For CATTAACG, the “PBM E-score” value was 0.0792. For AAGAATCA, the “PBM E-score” value was -0.0198. With ACCTGGGC the “PBM E-score” value was -0.321. GGTTGAAC was tested, and the “PBM E-score” value was -0.00254. In the case of CATTCAGA, the “PBM E-score” value is reported as -0.0972. In the case of ATCCGCTA, the “PBM E-score” value is reported as 0.243. For ACACATGT, the “PBM E-score” value was -0.00364. In the case of GCGTGTCC, the “PBM E-score” value is reported as 0.0304. With GGTGTTGA the “PBM E-score” value was -0.0925. AAGGCAAT was tested, and the “PBM E-score” value was -0.154. AAGCCCAG was tested, and the “PBM E-score” value was -0.125. ATAGCCTG was tested, and the “PBM E-score” value was -0.193. With ACACATCC the “PBM E-score” value was 0.228. For GACTGCAA, the “PBM E-score” value was -0.18. For ACATAGAC, the “PBM E-score” value was -0.193. For CGCCCCGC, the “PBM E-score” value was 0.161. With AACGTACT the “PBM E-score” value was -0.126. For TCCAATAA, the “PBM E-score” value was 0.00316. With ATACTGGA the “PBM E-score” value was -0.0296. In the case of AGCACCGA, the “PBM E-score” value is reported as 0.224. With AAAAGGCA the “PBM E-score” value was -0.0536. For AAAGTGCT, the “PBM E-score” value was -0.237. With CAACCACA the “PBM E-score” value was 0.0655. AAAGGATT was tested, and the “PBM E-score” value was -0.266. CTGACAAA was tested, and the “PBM E-score” value was -0.0138. In the case of ACCGGGGA, the “PBM E-score” value is reported as 0.0642. ACGTTTGG was tested, and the “PBM E-score” value was -0.251. ACACTGCA was tested, and the “PBM E-score” value was -0.169. With TGAGATCA the “PBM E-score” value was -0.147. In the case of AGCCAACC, the “PBM E-score” value is reported as 0.0376. In the case of AAGACGAC, the “PBM E-score” value is reported as -0.0846. CTTCTTCC was tested, and the “PBM E-score” value was 0.0577. CTAGAGTC was tested, and the “PBM E-score” value was -0.272. With CGAGTGCG the “PBM E-score” value was 0.0767. With AGAGACTC the “PBM E-score” value was -0.107. For CTAAAGCA, the “PBM E-score” value was -0.0261. With AAGGCATC the “PBM E-score” value was -0.107. For GTGTAAAC, the “PBM E-score” value was -0.0521. With ATGTATCG the “PBM E-score” value was -0.0501. ATCAGGTG was tested, and the “PBM E-score” value was -0.08. AACTGTGG was tested, and the “PBM E-score” value was -0.0169. CGGAAAAA was tested, and the “PBM E-score” value was 0.446. For ATTATCGC, the “PBM E-score” value was -0.195. In the case of CCAATTCC, the “PBM E-score” value is reported as 0.155. In the case of AGGCAGGC, the “PBM E-score” value is reported as -0.109. For AGGGTATG, the “PBM E-score” value was -0.256. In the case of ATGGACAA, the “PBM E-score” value is reported as -0.205. AGAAAGGA was tested, and the “PBM E-score” value was -0.161. With ATTTAACA the “PBM E-score” value was -0.105. ACCAGAAC was tested, and the “PBM E-score” value was -0.0183. For AATCAAAT, the “PBM E-score” value was 0.0777. ATACTCAT was tested, and the “PBM E-score” value was -0.0635. In the case of CGCGTCAG, the “PBM E-score” value is reported as -0.106. With GAGAGGAA the “PBM E-score” value was -0.117. ACTGAGAG was tested, and the “PBM E-score” value was -0.161. AGCGATTG was tested, and the “PBM E-score” value was -0.0885. In the case of GAGAAGAA, the “PBM E-score” value is reported as 0.0753. With TGCCAGAA the “PBM E-score” value was -0.188. For TACTTGCA, the “PBM E-score” value was -0.115. In the case of ACGGTACG, the “PBM E-score” value is reported as 0.104. In the case of ACTTCTAA, the “PBM E-score” value is reported as -0.103. With GCCCGTCC the “PBM E-score” value was 0.0561. For GTGGCATA, the “PBM E-score” value was 0.0633. AGTCGAAA was tested, and the “PBM E-score” value was -0.127. For CCTACATA, the “PBM E-score” value was -0.102. In the case of GGGTCTGA, the “PBM E-score” value is reported as -0.0431. AGGTTCTG was tested, and the “PBM E-score” value was -0.267. For CATTTTGG, the “PBM E-score” value was -0.133. In the case of GATACACA, the “PBM E-score” value is reported as 0.0285. With AGAAATAG the “PBM E-score” value was -0.175. For CTAAATCA, the “PBM E-score” value was -0.0716. For GTACCCGA, the “PBM E-score” value was 0.437. CTCTCCGA was tested, and the “PBM E-score” value was 0.322. For ACACTGCT, the “PBM E-score” value was -0.314. CACCTCGG was tested, and the “PBM E-score” value was 0.393. TACATGAA was tested, and the “PBM E-score” value was -0.167. In the case of GGAACTCC, the “PBM E-score” value is reported as 0.211. With ACTGGACT the “PBM E-score” value was -0.274. In the case of GACATAAA, the “PBM E-score” value is reported as -0.00649. In the case of GTCCTGTA, the “PBM E-score” value is reported as -0.0697. With GTATCCTA the “PBM E-score” value was -0.107. AGGACATA was tested, and the “PBM E-score” value was -0.234. In the case of CACAGACG, the “PBM E-score” value is reported as -0.222. In the case of TAGTTTCA, the “PBM E-score” value is reported as -0.0807. GTAAATAA was tested, and the “PBM E-score” value was -0.0867. With GACAGTCA the “PBM E-score” value was -0.0496. For AGTAGCTC, the “PBM E-score” value was -0.0881. ATATGCCG was tested, and the “PBM E-score” value was 0.304. CGTCCCGC was tested, and the “PBM E-score” value was 0.248. AACGTTCG was tested, and the “PBM E-score” value was 0.113. With ACTCGTGA the “PBM E-score” value was -0.241. With AAGCTTTG the “PBM E-score” value was -0.0371. For AAGATAGC, the “PBM E-score” value was 0.0831. For TCAGGTCA, the “PBM E-score” value was -0.111. With ATGTGAGC the “PBM E-score” value was -0.233. CCGGGTGA was tested, and the “PBM E-score” value was 0.354. In the case of AAGTGCGT, the “PBM E-score” value is reported as -0.176. With CTCGGCAG the “PBM E-score” value was 0.444. In the case of GCATAAAA, the “PBM E-score” value is reported as -0.00674. AAGCACCT was tested, and the “PBM E-score” value was -0.22. With ATATTGGC the “PBM E-score” value was 0.0793. With CACCTGCG the “PBM E-score” value was -0.018. In the case of ACGGAGCG, the “PBM E-score” value is reported as 0.156. For AACAGAAT, the “PBM E-score” value was -0.178. GTATTCAA was tested, and the “PBM E-score” value was 0.00801. In the case of ACCGTCCC, the “PBM E-score” value is reported as 0.2. In the case of CTTCTAGA, the “PBM E-score” value is reported as -0.0983. GAAAGAGA was tested, and the “PBM E-score” value was -0.0451. In the case of AACTTCCG, the “PBM E-score” value is reported as 0.451. For ATCCGCTG, the “PBM E-score” value was 0.203. In the case of ATGCAGTA, the “PBM E-score” value is reported as 0.00511. In the case of ACTTTAAT, the “PBM E-score” value is reported as -0.0201. In the case of CAATCCGC, the “PBM E-score” value is reported as 0.191. In the case of CGAGAGAC, the “PBM E-score” value is reported as 0.0166. For CGTCTCAC, the “PBM E-score” value was -0.118. For AATGCAAG, the “PBM E-score” value was -0.262. In the case of CGTAGGTC, the “PBM E-score” value is reported as -0.11. AACATCAA was tested, and the “PBM E-score” value was -0.0266. In the case of GCGAGTGA, the “PBM E-score” value is reported as -0.0567. With ACTAAGAT the “PBM E-score” value was -0.0286. With TGGTAAAA the “PBM E-score” value was 0.0638. ACTTCTCC was tested, and the “PBM E-score” value was 0.0961. ATAGAGGG was tested, and the “PBM E-score” value was -0.113. For ATACCTAT, the “PBM E-score” value was -0.13. For CTGGTATA, the “PBM E-score” value was -0.204. For TATTGCGA, the “PBM E-score” value was 0.0344.
